This note sets out measurements from the antibiotic and cytotoxicity screens of Wong et al. (2023).

Some of the results follow.

The subject of this experiment is HSkMC (human skeletal muscle cells). The experiment is described as follows: cytotoxicity call (relative viability < 0.9). The note with it: 10 µM.
`COc1ccc(NC(=O)Nc2ccc3c(c2)C(=O)N([C@H](C)CO)C[C@H](C)[C@H](CN(C)Cc2ccc(Cl)c(Cl)c2)OCCCC[C@@H](C)O3)cc1`: the cytotoxicity call is “inactive”.

Consider `O=C(C[C@H]1CC[C@H]2[C@@H](COC[C@@H](O)CN2Cc2ccccc2F)O1)N[C@@H]1CCN(Cc2ccccc2)C1`, for which the cytotoxicity call is “inactive”.

Regarding `COc1ccc(COC[C@]23N=C4SCCCN4[C@H](c4ccccc4O2)[C@H]3CO[Si](C)(C)C(C)(C)C)cc1`, the cytotoxicity call is “inactive”.

For `COc1ccc(S(=O)(=O)N(C)C[C@@H]2Oc3ccc(NC(=O)Nc4cccc5c4CCCC5)cc3CC(=O)N([C@@H](C)CO)C[C@@H]2C)cc1Cl`, the cytotoxicity call is “inactive”.

`NCCCC(O)(P(=O)(O)O)P(=O)(O)O`: the cytotoxicity call is “inactive”.

`C[C@@H]1CN([C@H](C)CO)C(=O)Cc2cc(NC(=O)CCN3CCOCC3)ccc2O[C@H]1CN(C)Cc1ccccc1`: the cytotoxicity call is “inactive”.

`C[C@@H]1CN([C@H](C)CO)C(=O)c2cc(NC(=O)Cc3cn(C)c4ccccc34)ccc2O[C@@H]1CN(C)S(C)(=O)=O`: the cytotoxicity call is “inactive”.

As for `CC(C)NC(=O)N(C)C[C@@H]1Oc2ccc(NC(=O)C3CCCCC3)cc2C(=O)N([C@H](C)CO)C[C@@H]1C`, the cytotoxicity call was “inactive”.

Take `C[C@H]1CN([C@@H](C)CO)S(=O)(=O)c2ccc(-c3ccc(C#N)cc3)cc2O[C@H]1CN(C)C(=O)CN(C)C`: the cytotoxicity call was “inactive”.

On to `C[C@@H]1CN([C@H](C)CO)C(=O)c2cc(NS(=O)(=O)c3ccc(F)cc3)ccc2O[C@H]1CN(C)CC1CC1`, for which the cytotoxicity call was “inactive”.

`C[C@@H]1CN([C@@H](C)CO)C(=O)c2cccc(NC(=O)C3CC3)c2O[C@@H]1CN(C)S(=O)(=O)c1ccc(F)cc1`: the cytotoxicity call was “inactive”.

Take `O=C1N[C@@H](Cc2c[nH]c3ccccc23)COC(=O)[C@@H](Cc2ccc(F)cc2)CCC=CC[C@H]1CC(=O)N(CCO)Cc1ccccc1`: the cytotoxicity call was “inactive”.

For `N[C@H](CSCSC[C@H](N)C(=O)O)C(=O)O`, the cytotoxicity call is “inactive”.

As to `CN(C)CC(=O)N[C@H]1CC[C@@H](CCNC(=O)C2CCC2)O[C@@H]1CO`, the cytotoxicity call was “inactive”.

Regarding `C[C@@H]1CN([C@@H](C)CO)C(=O)c2cccc(NC(=O)C3CC3)c2O[C@@H]1CN(C)Cc1ccc2c(c1)OCO2`, the cytotoxicity call is “inactive”.

With `NNc1ccc2[nH]c(=O)[nH]c2c1`, the cytotoxicity call was “inactive”.

For `C[N+](C)(CCOc1ccccc1)Cc1ccccc1.O=C([O-])c1cc2ccccc2cc1O`, the cytotoxicity call is “inactive”.

Regarding `Cc1ccc(S(=O)(=O)N(C)C[C@@H]2Oc3ccc(NS(=O)(=O)c4ccc(F)cc4)cc3CC(=O)N([C@@H](C)CO)C[C@@H]2C)cc1`, the cytotoxicity call is “inactive”.

Turning to `C[C@@H]1CN([C@@H](C)CO)S(=O)(=O)c2ccc(-c3cccc(C(=O)N(C)C)c3)cc2O[C@H]1CN(C)C(=O)Cc1ccccn1`, the cytotoxicity call is “inactive”.

As to `C[C@H]1CN([C@@H](C)CO)C(=O)c2cc(NC(=O)Nc3ccc(C(F)(F)F)cc3)ccc2O[C@@H]1CN(C)C(=O)Nc1ccc(C(F)(F)F)cc1`, the cytotoxicity call was “inactive”.

As to `C[C@]12NC(=O)N[C@H](c3ccccc3O1)[C@H]2CO`, the cytotoxicity call is “inactive”.

As for `C(=N\n1cnnc1)/c1ccco1`, the cytotoxicity call was “inactive”.

As for `C[C@H](CO)N1C[C@H](C)[C@H](CN(C)Cc2ccc(C(=O)O)cc2)Oc2c(NS(=O)(=O)c3cn(C)cn3)cccc2C1=O`, the cytotoxicity call is “inactive”.

On to `C[C@@H]1CCCCO[C@@H](CN(C)C(=O)Nc2ccc(F)cc2)[C@H](C)CN([C@@H](C)CO)C(=O)c2cc(NC(=O)Cc3ccccc3)ccc2O1`, for which the cytotoxicity call was “inactive”.

`Cc1nc(=O)c2c([nH]1)CCSC2`: the cytotoxicity call was “inactive”.

Turning to `CC(C)NC(=O)Nc1ccc2c(c1)C(=O)N([C@@H](C)CO)C[C@@H](C)[C@H](CN(C)C(=O)Nc1ccc3c(c1)OCO3)O2`, the cytotoxicity call was “inactive”.

Take `COc1ccc(NC(=O)N(C)C[C@H]2Oc3c(NC(=O)c4cnccn4)cccc3C(=O)N([C@@H](C)CO)C[C@H]2C)cc1`: the cytotoxicity call is “inactive”.

Take `C[C@@H]1CN([C@@H](C)CO)C(=O)c2cc(NC(=O)Nc3ccccc3)ccc2O[C@@H](C)CCCCO[C@H]1CN(C)C(=O)C1CCCCC1`: the cytotoxicity call is “inactive”.

For `C[C@H]1CN([C@@H](C)CO)C(=O)Cc2cc(NC(=O)CCC(F)(F)F)ccc2O[C@@H]1CN(C)C(=O)Nc1ccc(C(F)(F)F)cc1`, the cytotoxicity call was “inactive”.

Take `Cc1ccc(S(=O)(=O)N(C)C[C@@H]2Oc3ccc(NS(=O)(=O)c4cn(C)cn4)cc3C(=O)N([C@@H](C)CO)C[C@H]2C)cc1`: the cytotoxicity call is “inactive”.

Take `Cc1noc(C)c1S(=O)(=O)Nc1ccc2c(c1)C(=O)N([C@H](C)CO)C[C@H](C)[C@H](CN(C)CC1CCCCC1)OCCCC[C@@H](C)O2`: the cytotoxicity call was “inactive”.

On to `COc1ccc2c3c(n(c2c1)C)[C@@H](CO)N(CC1CCCC1)C[C@]13CCN(CC1)C(=O)Nc1ccccc1`, for which the cytotoxicity call is “inactive”.

`c1cc(-c2nn[nH]n2)ccc1OCc1nn[nH]n1`: the cytotoxicity call was “inactive”.

For `C=C/C=C/[C@H]1C(=C)CN([C@H](Cc2ccc(-n3cc(C(=O)NO)nn3)cc2)C(=O)OC)[C@@H]1[C@H](O)Cc1ccccc1`, the cytotoxicity call is “inactive”.

With `CC(=O)N1CCN(CC(N)=S)CC1`, the cytotoxicity call was “inactive”.

As to `COc1ccc(S(=O)(=O)Nc2ccc3c(c2)C(=O)N([C@@H](C)CO)C[C@H](C)[C@@H](CN(C)S(=O)(=O)c2ccc(C)cc2)O3)cc1`, the cytotoxicity call was “inactive”.

Consider `C[C@H](CO)N1C[C@H](C)[C@H](CN(C)Cc2cccc3c2OCCCO3)OCc2cnnn2CCCC1=O`, for which the cytotoxicity call was “inactive”.

On to `c1cc[n+](C[n+]2ccccc2)cc1`, for which the cytotoxicity call was “inactive”.

`COc1ccc(S(=O)(=O)N[C@@H]2C=C[C@@H](CC(=O)N3CCN(c4ccccc4)CC3)O[C@H]2CO)cc1`: the cytotoxicity call was “inactive”.
